Experimental data published in paper PMC12820563.
The other results are listed elsewhere or left out. The list includes weakly bound sequences.

Molecular target: T1, MBP-FoxP3dN (UniProt Q99JB6)
T1 sequence: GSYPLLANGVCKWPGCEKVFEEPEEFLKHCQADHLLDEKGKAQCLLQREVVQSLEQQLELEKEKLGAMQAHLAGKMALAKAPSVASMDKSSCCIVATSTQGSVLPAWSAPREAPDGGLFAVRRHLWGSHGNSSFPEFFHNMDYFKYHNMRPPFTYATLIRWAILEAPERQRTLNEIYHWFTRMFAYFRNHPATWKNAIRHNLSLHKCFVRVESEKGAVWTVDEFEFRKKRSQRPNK
Assay: PD-seq (MBP pull-down with sequencing)
Conditions: 20 mM Tris-HCl pH 7.5, 100 mM NaCl, 1.5 mM MgCl2, 0.4 uM protein, 0.1 uM dsDNA library, 30 min, room temperature, amylose pull-down; high values mean tight binding; double strand, one strand shown

| Sequence | binding signal (RPM ratio (pull-down/input)) |
| --- | --- |
| GATGATTGTTCTCCCAGCTGATGAATTGAAGTACTCGAGTAAACAAATTTTCCTAATCTTTCTGTTCAAGCGCCATCTAC | 0.422 |
| GATGATTGTTCTCCCAGCTGATGAATTGGCCAAATCGAGTAAACAAATTTTCCTAATCTTTCTGTTCAAGCGCCATCTAC | 0.278 |
| GATGATTGTTCTCCCAGCTGATGAATTGGACATTTCGAGTAAACAAATTTTCCTAATCTTTCTGTTCAAGCGCCATCTAC | 0.483 |
| GATGATTGTTCTCCCAGCTGATGAATTGGGACCATCGAGTAAACAAATTTTCCTAATCTTTCTGTTCAAGCGCCATCTAC | 0.5 |
| GATGATTGTTCTCCCAGCTGATGAATTCCAGCTTTCGAGTAAACAAATTTTCCTAATCTTTCTGTTCAAGCGCCATCTAC | 0.831 |
| GATGATTGTTCTCCCAGCTGATGAATTTCGAGCCTCGAGTAAACAAATTTTCCTAATCTTTCTGTTCAAGCGCCATCTAC | 0.476 |
| GATGATTGTTCTCCCAGCTGATGAATTTATCCACTCGAGTAAACAAATTTTCCTAATCTTTCTGTTCAAGCGCCATCTAC | 0.635 |
| GATGATTGTTCTCCCAGCTGATGAATTTCCATAATCGAGTAAACAAATTTTCCTAATCTTTCTGTTCAAGCGCCATCTAC | 0.332 |
| GATGATTGTTCTCCCAGCTGATGAATTCTAGGAGTCGAGTAAACAAATTTTCCTAATCTTTCTGTTCAAGCGCCATCTAC | 0.233 |
| GATGATTGTTCTCCCAGCTGATGAATTGGAGTTCTCGAGTAAACAAATTTTCCTAATCTTTCTGTTCAAGCGCCATCTAC | 0.548 |
| GATGATTGTTCTCCCAGCTGATGAATTCGGGGGGTCGAGTAAACAAATTTTCCTAATCTTTCTGTTCAAGCGCCATCTAC | 0.886 |
| GATGATTGTTCTCCCAGCTGATGAATTTAATCGTTCGAGTAAACAAATTTTCCTAATCTTTCTGTTCAAGCGCCATCTAC | 0.599 |
| GATGATTGTTCTCCCAGCTGATGAATTAATCAACTCGAGTAAACAAATTTTCCTAATCTTTCTGTTCAAGCGCCATCTAC | 0.446 |
| GATGATTGTTCTCCCAGCTGATGAATTACACGTCTCGAGTAAACAAATTTTCCTAATCTTTCTGTTCAAGCGCCATCTAC | 0.646 |
| GATGATTGTTCTCCCAGCTGATGAATTAACCAGATCGAGTAAACAAATTTTCCTAATCTTTCTGTTCAAGCGCCATCTAC | 0.176 |
| GATGATTGTTCTCCCAGCTGATGAATTAACTGGATCGAGTAAACAAATTTTCCTAATCTTTCTGTTCAAGCGCCATCTAC | 0.191 |
| GATGATTGTTCTCCCAGCTGATGAATTTGTGGGTTCGAGTAAACAAATTTTCCTAATCTTTCTGTTCAAGCGCCATCTAC | 3.87 |
| GATGATTGTTCTCCCAGCTGATGAATTCGGTCCGTCGAGTAAACAAATTTTCCTAATCTTTCTGTTCAAGCGCCATCTAC | 0.258 |
| GATGATTGTTCTCCCAGCTGATGAATTATGACTGTCGAGTAAACAAATTTTCCTAATCTTTCTGTTCAAGCGCCATCTAC | 1.1 |
| GATGATTGTTCTCCCAGCTGATGAATTAGAGAGTTCGAGTAAACAAATTTTCCTAATCTTTCTGTTCAAGCGCCATCTAC | 0.399 |
| GATGATTGTTCTCCCAGCTGATGAATTTCGCGGCTCGAGTAAACAAATTTTCCTAATCTTTCTGTTCAAGCGCCATCTAC | 0.658 |

| Sequence | binding signal (RPM ratio (pull-down/input)) |
| --- | --- |
| GATGATTGTTCTCCCAGCTGATGAATTGTTGGCATCGAGTAAACAAATTTTCCTAATCTTTCTGTTCAAGCGCCATCTAC | 2.52 |
| GATGATTGTTCTCCCAGCTGATGAATTTTTATAGTCGAGTAAACAAATTTTCCTAATCTTTCTGTTCAAGCGCCATCTAC | 0.288 |
| GATGATTGTTCTCCCAGCTGATGAATTACTGGCTTCGAGTAAACAAATTTTCCTAATCTTTCTGTTCAAGCGCCATCTAC | 0.325 |
| GATGATTGTTCTCCCAGCTGATGAATTAAGCCCCTCGAGTAAACAAATTTTCCTAATCTTTCTGTTCAAGCGCCATCTAC | 1.09 |
| GATGATTGTTCTCCCAGCTGATGAATTATCCTAGTCGAGTAAACAAATTTTCCTAATCTTTCTGTTCAAGCGCCATCTAC | 0.24 |
| GATGATTGTTCTCCCAGCTGATGAATTTGTTTAATCGAGTAAACAAATTTTCCTAATCTTTCTGTTCAAGCGCCATCTAC | 5.42 |
| GATGATTGTTCTCCCAGCTGATGAATTTCATAGATCGAGTAAACAAATTTTCCTAATCTTTCTGTTCAAGCGCCATCTAC | 0.278 |
| GATGATTGTTCTCCCAGCTGATGAATTTAATGCATCGAGTAAACAAATTTTCCTAATCTTTCTGTTCAAGCGCCATCTAC | 1.99 |
| GATGATTGTTCTCCCAGCTGATGAATTCACGTCCTCGAGTAAACAAATTTTCCTAATCTTTCTGTTCAAGCGCCATCTAC | 0.353 |
| GATGATTGTTCTCCCAGCTGATGAATTAAGGGATTCGAGTAAACAAATTTTCCTAATCTTTCTGTTCAAGCGCCATCTAC | 0.4 |
| GATGATTGTTCTCCCAGCTGATGAATTGACACATTCGAGTAAACAAATTTTCCTAATCTTTCTGTTCAAGCGCCATCTAC | 0.772 |
| GATGATTGTTCTCCCAGCTGATGAATTTTTCCGATCGAGTAAACAAATTTTCCTAATCTTTCTGTTCAAGCGCCATCTAC | 0.192 |
| GATGATTGTTCTCCCAGCTGATGAATTATAATGGTCGAGTAAACAAATTTTCCTAATCTTTCTGTTCAAGCGCCATCTAC | 0.57 |
| GATGATTGTTCTCCCAGCTGATGAATTGAGAAAGTCGAGTAAACAAATTTTCCTAATCTTTCTGTTCAAGCGCCATCTAC | 0.178 |
| GATGATTGTTCTCCCAGCTGATGAATTTCGAATATCGAGTAAACAAATTTTCCTAATCTTTCTGTTCAAGCGCCATCTAC | 0.521 |
| GATGATTGTTCTCCCAGCTGATGAATTAGTCAAGTCGAGTAAACAAATTTTCCTAATCTTTCTGTTCAAGCGCCATCTAC | 0.297 |
| GATGATTGTTCTCCCAGCTGATGAATTAAACGTCTCGAGTAAACAAATTTTCCTAATCTTTCTGTTCAAGCGCCATCTAC | 0.427 |
| GATGATTGTTCTCCCAGCTGATGAATTTAGATACTCGAGTAAACAAATTTTCCTAATCTTTCTGTTCAAGCGCCATCTAC | 1.25 |
| GATGATTGTTCTCCCAGCTGATGAATTTGACCTTTCGAGTAAACAAATTTTCCTAATCTTTCTGTTCAAGCGCCATCTAC | 0.418 |
| GATGATTGTTCTCCCAGCTGATGAATTCGGACGGTCGAGTAAACAAATTTTCCTAATCTTTCTGTTCAAGCGCCATCTAC | 0.201 |
| GATGATTGTTCTCCCAGCTGATGAATTAGTCCACTCGAGTAAACAAATTTTCCTAATCTTTCTGTTCAAGCGCCATCTAC | 0.53 |

| Sequence | binding signal (RPM ratio (pull-down/input)) |
| --- | --- |
| GATGATTGTTCTCCCAGCTGATGAATTTATTAAGTCGAGTAAACAAATTTTCCTAATCTTTCTGTTCAAGCGCCATCTAC | 0.705 |
| GATGATTGTTCTCCCAGCTGATGAATTTCATAATTCGAGTAAACAAATTTTCCTAATCTTTCTGTTCAAGCGCCATCTAC | 0.324 |
| GATGATTGTTCTCCCAGCTGATGAATTAGTTTCATCGAGTAAACAAATTTTCCTAATCTTTCTGTTCAAGCGCCATCTAC | 1.56 |
| GATGATTGTTCTCCCAGCTGATGAATTGGTACCATCGAGTAAACAAATTTTCCTAATCTTTCTGTTCAAGCGCCATCTAC | 0.697 |
| GATGATTGTTCTCCCAGCTGATGAATTGAGAGATTCGAGTAAACAAATTTTCCTAATCTTTCTGTTCAAGCGCCATCTAC | 0.386 |
| GATGATTGTTCTCCCAGCTGATGAATTGTCTAATTCGAGTAAACAAATTTTCCTAATCTTTCTGTTCAAGCGCCATCTAC | 0.542 |
| GATGATTGTTCTCCCAGCTGATGAATTCAGGGAGTCGAGTAAACAAATTTTCCTAATCTTTCTGTTCAAGCGCCATCTAC | 0.296 |
| GATGATTGTTCTCCCAGCTGATGAATTAGAAGAGTCGAGTAAACAAATTTTCCTAATCTTTCTGTTCAAGCGCCATCTAC | 0.214 |
| GATGATTGTTCTCCCAGCTGATGAATTTAAGACATCGAGTAAACAAATTTTCCTAATCTTTCTGTTCAAGCGCCATCTAC | 0.436 |
| GATGATTGTTCTCCCAGCTGATGAATTGGCCTCATCGAGTAAACAAATTTTCCTAATCTTTCTGTTCAAGCGCCATCTAC | 0.746 |
| GATGATTGTTCTCCCAGCTGATGAATTCAGCCCGTCGAGTAAACAAATTTTCCTAATCTTTCTGTTCAAGCGCCATCTAC | 1.19 |
| GATGATTGTTCTCCCAGCTGATGAATTAAATACTTCGAGTAAACAAATTTTCCTAATCTTTCTGTTCAAGCGCCATCTAC | 0.469 |
| GATGATTGTTCTCCCAGCTGATGAATTTGAGTTATCGAGTAAACAAATTTTCCTAATCTTTCTGTTCAAGCGCCATCTAC | 0.953 |
| GATGATTGTTCTCCCAGCTGATGAATTCATTTGCTCGAGTAAACAAATTTTCCTAATCTTTCTGTTCAAGCGCCATCTAC | 2.92 |
| GATGATTGTTCTCCCAGCTGATGAATTAAATCTATCGAGTAAACAAATTTTCCTAATCTTTCTGTTCAAGCGCCATCTAC | 0.327 |
| GATGATTGTTCTCCCAGCTGATGAATTTTAAGCGTCGAGTAAACAAATTTTCCTAATCTTTCTGTTCAAGCGCCATCTAC | 0.485 |
| GATGATTGTTCTCCCAGCTGATGAATTTATAGAATCGAGTAAACAAATTTTCCTAATCTTTCTGTTCAAGCGCCATCTAC | 0.337 |
| GATGATTGTTCTCCCAGCTGATGAATTGTACGACTCGAGTAAACAAATTTTCCTAATCTTTCTGTTCAAGCGCCATCTAC | 0.357 |
| GATGATTGTTCTCCCAGCTGATGAATTCTAGCAATCGAGTAAACAAATTTTCCTAATCTTTCTGTTCAAGCGCCATCTAC | 2.2 |
| GATGATTGTTCTCCCAGCTGATGAATTCGCGTCATCGAGTAAACAAATTTTCCTAATCTTTCTGTTCAAGCGCCATCTAC | 1.24 |
| GATGATTGTTCTCCCAGCTGATGAATTTGGGTATTCGAGTAAACAAATTTTCCTAATCTTTCTGTTCAAGCGCCATCTAC | 1.37 |
